The values that follow come from PubChem BioAssay AID1745853 (National Center for Advancing Translational Sciences (NCATS), 2022).

The other results are listed elsewhere or left out. Shown are side measurements of this screen, not its main read-out; they come without a call.

Assay in all cases: Primary Screen for Target Class Profiling of Small Molecule Inhibitors of Methyltransferases
The target of test [1] is Glycine N-methyltransferase (Homo sapiens) (UniProt Q14749). The following applies: purified enzyme, MTase-Glo SAH luminescence; measured here: GNMT inhibition; at 40 µM; stronger effect = lower value. In a few lines:
(§1)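 Each enzyme was reacted with SAM and its substrate, with compounds tested once at 40 uM; SAH formed was read by MTase-Glo luminescence.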

The target in test [2] is Guanidinoacetate N-methyltransferase (Homo sapiens) (UniProt Q14353). Conditions: purified enzyme, MTase-Glo SAH luminescence; measured here: GAMT inhibition; at 40 µM; stronger effect = lower value. Summed up: as §1
Test [3] deals with Histamine N-methyltransferase (Homo sapiens) (UniProt P50135). The following applies: purified enzyme, MTase-Glo SAH luminescence; measured here: HNMT inhibition; at 40 µM; stronger effect = lower value. In a few lines: as §1
In test [4] the target is Nicotinamide N-methyltransferase (Homo sapiens) (UniProt P40261). Conditions: purified enzyme, MTase-Glo SAH luminescence; measured here: NNMT inhibition; at 40 µM; stronger effect = lower value. In a few lines: as §1
In test [5] the target is Phenylethanolamine N-methyltransferase (Homo sapiens) (UniProt P11086). The following applies: purified enzyme, MTase-Glo SAH luminescence; measured here: PNMT inhibition; at 40 µM; stronger effect = lower value. Summed up:
as §1
On the % scale 0 is the no-effect control and ±100 the full control effect.

For `N#Cc1ccccc1CN1CCNc2nc(CNCc3ccccc3)n(Cc3ccccc3)c2C1=O`, the activity change, negative = inhibition in test [1] was -6.32%; in test [2], 0.721%; in test [3], -9.86%; in test [4], -2.09%; in test [5] it was 1.98%.

`CC(C)CCNC(=O)C1(C)Cn2nc(C(=O)NC3CCCCC3)cc2C(=O)N1C` (stereo not given): the activity change, negative = inhibition was 7.79% in test [1]; 0.763% in test [2]; 9.81% in test [3]; 10.1% in test [4]; 5.84% in test [5].

Regarding `COCCNC(=O)c1cc(N2CCOCC2)cc2c1OCCN2C`, the activity change, negative = inhibition was -5.69% in test [1]; -7.23% in test [2]; -1.11% in test [3]; -16.3% in test [4]; -15.8% in test [5].

Regarding `Cc1ccc(Cn2nc3n(CC(C)C)c(=O)c4ccc(C(=O)NC5CCCC5)cc4n3c2=O)cc1`, the activity change, negative = inhibition is 1.82% in test [1]; 2.58% in test [2]; 4.38% in test [3]; -0.506% in test [4]; -0.248% in test [5].

With `CCOCCCN1C(=O)c2ccc(-c3ccco3)n2CC1(C)C(=O)NC1CCCCCCC1` (stereo not given), the activity change, negative = inhibition in test [1] is -7.84%; in test [2], -3.13%; in test [3] it was -1.68%; in test [4] it was -10.8%; in test [5] it was -4.76%.

For `CCN(CCCNC(=O)CCCc1nnc2n3nc(-c4ccccc4)nc3c3ccccc3n12)c1ccccc1`, the activity change, negative = inhibition in test [1] was -10.6%; in test [2], 1.04%; in test [3], -19.9%; in test [4], -5.02%; in test [5], -10.6%.

Turning to `Cc1cccc(C(=O)Nc2c(N3CCCCC3)c(-c3cccc(F)c3)nn2C)c1`, the activity change, negative = inhibition was 4.22% in test [1]; 1.86% in test [2]; 1.36% in test [3]; -0.145% in test [4]; -23.5% in test [5].

Regarding `CC(C)NC[C@H]1O[C@@H](CO)[C@@H](O)[C@H]1N1CCN(C)CC1`, the activity change, negative = inhibition is -2.28% in test [1]; -2.48% in test [2]; -0.826% in test [3]; -7.56% in test [4]; -3.93% in test [5].

Turning to `Cc1ccccc1NC(=O)Cn1nc2n(C)c(=O)c3ccc(C(=O)NC4CCCCC4)cc3n2c1=O`, the activity change, negative = inhibition in test [1] was -0.106%; in test [2], 0.195%; in test [3], 0.28%; in test [4], -3.61%; in test [5], -4.07%.

For `O=C(C1CC(c2ccc(F)cc2)=NO1)N1CCN(c2ccc(F)cc2)CC1` (stereo not given), the activity change, negative = inhibition in test [1] is -2.68%; in test [2], 2.68%; in test [3] it was -7.87%; in test [4], -1.01%; in test [5], -10.3%.

`CCCn1c(=O)c2ccc(C(=O)NC(C)CC)cc2n2c(=O)n(CC(=O)Nc3ccccc3CC)nc12` (stereo not given): the activity change, negative = inhibition in test [1] is -3.42%; in test [2], -3.24%; in test [3] it was -0.471%; in test [4] it was -4.12%; in test [5] it was -5.46%.

Consider `CC1(C(=O)NC2CCCCCC2)Cc2ccccc2C(=O)N1CCc1ccccc1` (stereo not given), for which the activity change, negative = inhibition in test [1] turned out to be 3.04%; in test [2] it was 1.3%; in test [3], 9.08%; in test [4], 1.81%; in test [5], 2.93%.

For the compound `COC(=O)c1ccccc1C(=O)N1CCNC(=O)C1Cc1ccccc1` (stereo not given), the activity change, negative = inhibition in test [1] is -1.2%; in test [2], -0.181%; in test [3] it was -0.922%; in test [4] it was -0.765%; in test [5], -21.8%.

Turning to `O=C(CCn1ccc2cc(S(=O)(=O)N3CCCCC3)ccc21)NCc1ccc2c(c1)OCO2`, the activity change, negative = inhibition in test [1] is 1.32%; in test [2], 0%; in test [3] it was -0.363%; in test [4] it was -4.68%; in test [5] it was 1.48%.

`CC(C)CCn1c(=O)c2ccc(C(=O)NC3CCCC3)cc2n2c(=O)n(CC(=O)NC3CCCC3)nc12`: the activity change, negative = inhibition in test [1] was 0.158%; in test [2] it was 0.975%; in test [3], 1.26%; in test [4], -4.33%; in test [5], -6.24%.

`NC(=O)C1CCN(C(=O)[C@H]2C[C@@H](O)[C@H](O)[C@@H]3N=C(Nc4cccc(C(F)(F)F)c4)S[C@@H]32)CC1`: the activity change, negative = inhibition was -1.97% in test [1]; -2.27% in test [2]; 0.531% in test [3]; -6.61% in test [4]; -2.01% in test [5].

On to `CC(C)(C)c1ccc(-c2nc3ccccc3[nH]2)cc1`, for which the activity change, negative = inhibition is -48.1% in test [1]; -69% in test [2]; -41.6% in test [3]; -71.9% in test [4]; -65.5% in test [5].

On to `CC(C)CNC(=O)c1ccc2c(=O)n(CC(C)C)c3nn(Cc4ccccc4Cl)c(=O)n3c2c1`, for which the activity change, negative = inhibition was 1.53% in test [1]; 0% in test [2]; 2.65% in test [3]; -0.49% in test [4]; 2.77% in test [5].

Regarding `C=Cc1ccc(Cn2nc3n(C)c(=O)c4ccc(C(=O)NC5CCCC5)cc4n3c2=O)cc1`, the activity change, negative = inhibition in test [1] is -0.829%; in test [2] it was 1.67%; in test [3], 8.98%; in test [4], -1.45%; in test [5], 1.65%.

In the case of `CCC[C@H]1CN(C(=O)CCc2ccccc2C)C[C@@H]1N`, the activity change, negative = inhibition in test [1] was -8.43%; in test [2] it was -13.2%; in test [3], -6.57%; in test [4] it was -19.4%; in test [5] it was -14.6%.

With `CCOC(=O)C12CC1/C(=N/O)c1ccccc1O2` (stereo not given), the activity change, negative = inhibition was -6.08% in test [1]; 4.88% in test [2]; -2.07% in test [3]; -3.58% in test [4]; 6.11% in test [5].

Turning to `Cc1ccc(CN2C(=O)c3ccc(-c4ccco4)n3CC2(C)C(=O)NCc2ccc(Cl)cc2)cc1` (stereo not given), the activity change, negative = inhibition in test [1] was -5.91%; in test [2], -36.7%; in test [3] it was 0.831%; in test [4], -12.4%; in test [5], -4%.

With `Cc1cccc(-c2n[nH]n3c2nc(=O)c2ccc(C(=O)NC4CCCCC4)cc23)c1`, the activity change, negative = inhibition was -3.36% in test [1]; 0.53% in test [2]; -5.6% in test [3]; -3.14% in test [4]; -4.59% in test [5].

As for `COC(=O)C1=CO[C@@H](O[C@@H]2O[C@H](CO)[C@@H](O)[C@H](O)[C@H]2O)[C@@H]2[C@@](C)(O)[C@@H](OC(=O)/C=C/c3ccc(O)cc3)C[C@]12O`, the activity change, negative = inhibition in test [1] was -1.87%; in test [2], 1.25%; in test [3], 10.8%; in test [4], -12.7%; in test [5] it was -7.13%.

For the compound `O=C(Cn1nc2n(Cc3ccc(F)cc3)c(=O)c3ccccc3n2c1=O)Nc1cccc(Cl)c1`, the activity change, negative = inhibition in test [1] is 1.15%; in test [2], 0%; in test [3], 5.97%; in test [4] it was -3.94%; in test [5], -2.34%.

As for `O=C(NC1CCN(c2cc(-c3ccc(Cl)cc3)[nH]n2)C1)c1ccc(Br)o1` (stereo not given), the activity change, negative = inhibition is -13.1% in test [1]; -4.61% in test [2]; -2.22% in test [3]; -16.7% in test [4]; -7.18% in test [5].

For the compound `CC(=O)N1CCN(c2nc3c(s2)CC(C(=O)Nc2cc(Cl)ccc2F)CC3)CC1` (stereo not given), the activity change, negative = inhibition in test [1] is -4.68%; in test [2], -3%; in test [3], -0.309%; in test [4], -4.01%; in test [5], -2.09%.

As for `O=C(O)CC1C(=O)NCCN1C1Cc2ccccc2C1` (stereo not given), the activity change, negative = inhibition was -2.39% in test [1]; 1.82% in test [2]; 0.965% in test [3]; -1.7% in test [4]; -17.3% in test [5].

As to `Cc1nc(-c2cn3c(n2)-c2ccc(-c4cnn(C(C)(C)C(N)=O)c4)cc2OCC3)n(C(C)C)n1`, the activity change, negative = inhibition in test [1] is -6.71%; in test [2], -3.45%; in test [3], 4.04%; in test [4], -18.1%; in test [5], 1.09%.
